The results in this text go back to PMC6919601, “Identification of Plasmodium dipeptidyl aminopeptidase allosteric inhibitors by high throughput screening” (PLoS ONE, 2019).

The whole screen tested about 110,000 compounds, of which about 230 (0.21%) showed an effect of 50% or more. The list shows a part of the results.
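Also: 30 min substrate incubation versus DMSO and 10 µM JCP410 controls.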

Sequence of DPAP1 (Q8IIJ9 whole entry, looked up): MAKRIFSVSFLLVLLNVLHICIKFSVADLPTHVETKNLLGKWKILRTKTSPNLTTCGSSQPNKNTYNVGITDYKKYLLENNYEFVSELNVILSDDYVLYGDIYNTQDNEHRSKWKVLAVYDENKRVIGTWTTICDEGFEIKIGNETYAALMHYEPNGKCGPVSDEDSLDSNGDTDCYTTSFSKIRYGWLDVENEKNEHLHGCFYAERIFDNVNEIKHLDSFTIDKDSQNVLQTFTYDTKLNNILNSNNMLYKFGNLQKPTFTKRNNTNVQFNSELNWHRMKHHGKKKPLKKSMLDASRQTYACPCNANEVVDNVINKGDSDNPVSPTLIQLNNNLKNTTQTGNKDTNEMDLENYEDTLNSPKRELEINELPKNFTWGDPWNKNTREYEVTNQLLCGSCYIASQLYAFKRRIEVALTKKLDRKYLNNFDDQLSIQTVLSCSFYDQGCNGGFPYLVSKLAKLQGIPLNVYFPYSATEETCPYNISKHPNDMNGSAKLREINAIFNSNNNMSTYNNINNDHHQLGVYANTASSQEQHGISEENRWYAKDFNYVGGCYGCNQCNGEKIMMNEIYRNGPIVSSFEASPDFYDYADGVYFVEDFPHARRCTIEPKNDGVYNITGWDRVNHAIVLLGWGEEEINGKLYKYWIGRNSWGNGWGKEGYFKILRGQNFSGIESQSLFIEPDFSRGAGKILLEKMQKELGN

This test has as its target DPAP1 (Plasmodium falciparum, UniProt Q8IIJ9). The test is described as follows: primary screen, percent inhibition; read by cleavage of a fluorogenic dipeptide substrate; higher = more effect of the substance. On the set-up: species or system P. falciparum D10 trophozoite lysates; single well.
As for `Cc1ccc2nc(NC(=O)C3C4C=CC(C4)C3C(=O)O)sc2c1` (centres unmarked), the “% Inhibition @ 10 uM” value was found to be 2.79%. As for `C=CCSC1=C(C#N)C(c2cccc(OC)c2)CC(=O)N1` (centres unmarked), the “% Inhibition @ 10 uM” value is on record as -1.64%. Consider `CC1CC(C)CN(C(=O)CCCNS(=O)(=O)c2cccc3nsnc23)C1` (centres unmarked), for which the “% Inhibition @ 10 uM” value is listed as 2%. For `Cc1cccc(NC(=O)C(Cc2ccccc2)NS(=O)(=O)c2cccc3nsnc23)n1` (centres unmarked), the “% Inhibition @ 10 uM” value came to 0.317%.

`CCCCC(=O)Nc1sc2c(c1C#N)CCCCC2`: the “% Inhibition @ 10 uM” value is 3.65%.

For `CC1CC(C)CN(c2oc(-c3ccc(F)cc3)nc2C#N)C1` (centres unmarked), the “% Inhibition @ 10 uM” value is 0.315%. To `COCCNC(=O)c1c(C)nn(-c2ccc(F)cc2)c1-n1cccc1` belongs -4.08%; to `Cc1ccc2c(c1)-c1onc(C(=O)NCCC3=CCCCC3)c1CO2`, -3.17%; to `CCOc1cccc(C(=O)Nc2nnc(C34CC5CC(CC(C5)C3)C4)s2)c1`, -0.142%.

As to `N#Cc1c(N)nc2c(c1-c1ccccc1Cl)CCCCC2`, the “% Inhibition @ 10 uM” value was 4.51%. On to `O=C(NCC1COc2ccccc2O1)C1COc2ccccc2O1` (centres unmarked), for which the “% Inhibition @ 10 uM” value is recorded as -1.32%. For `COc1ccc(CC(C)NCc2ccc(Cl)c(Cl)c2)cc1` (centres unmarked), the “% Inhibition @ 10 uM” value is given as 0.472%. Take `O=C(CCC(=O)N1Cc2ccccc2Oc2ncccc21)NCc1ccccc1F`: the “% Inhibition @ 10 uM” value is recorded as 1.63%. In the case of `Clc1ccc(-c2csc(Nc3ccc4c(c3)OCO4)n2)cc1`, the “% Inhibition @ 10 uM” value came to 2%. Consider `Cc1ccccc1CN1CCCC(CO)C1` (centres unmarked), for which the “% Inhibition @ 10 uM” value is -0.833%. To `Oc1ccc(Cl)cc1-c1cc(-c2ccc(Br)cc2)[nH]n1` belongs -0.233%; to `Cc1ccc(Cn2nnc3c(=O)n(CC(=O)NCc4ccc(F)cc4)cnc32)cc1`, -0.431%; to `CCOC(=O)c1sc(N2N=C(C)/C(=C\C=C\c3ccco3)C2=O)nc1C`, -6.44%. In the case of `Cc1ccc(Sc2c(C(=O)NCCN(C)C)[nH]c3ccccc23)cc1`, the “% Inhibition @ 10 uM” value is on record as -4.09%.

With `CN(Cc1ccccc1)C(=O)CN(c1ccc(F)cc1)S(=O)(=O)c1ccccc1`, the “% Inhibition @ 10 uM” value is given as -7.01%. `O=C1ON=C(c2ccccc2)/C1=C\c1ccc(OCc2ccccc2)cc1`: the “% Inhibition @ 10 uM” value is -2.14%. For the compound `Cc1ccc(NCN2C(=O)C3CC=CCC3C2=O)cc1Cl` (centres unmarked), the “% Inhibition @ 10 uM” value is on record as 2.27%. Then `CC(NS(=O)(=O)c1ccc(OCC(=O)NC2CC2)cc1)c1ccccc1` (centres unmarked), with -2.58%. For `Cc1ccc(C(=O)Nc2nonc2NC(=O)c2ccc(C)cc2)cc1`, the “% Inhibition @ 10 uM” value was 6.37%. To `Cc1ccc(N2C(=O)C(Cl)=C(NCCO)C2=O)c(C)c1` belongs -2.78%; to `Cc1cc(=O)oc2c(C)c3oc4c(c3cc12)CCCC4`, 2.21%. Consider `O=C(/C=C\c1cccs1)CC(O)(c1ccccc1)C(F)(F)F` (centres unmarked), for which the “% Inhibition @ 10 uM” value is 1.88%.

As to `CCn1c2ccccc2c2cc(CNc3cccc(OC)c3)ccc21`, the “% Inhibition @ 10 uM” value is given as -1.82%. Then `CCC(C)NC(=O)C1CCN(C(=O)C2CCN(S(=O)(=O)c3ccc(C)cc3)CC2)CC1` (centres unmarked), with 3.66%.

For the compound `COc1ccc(OC)c(CCNC(=O)c2ccc(CS(=O)Cc3ccc(Cl)cc3)o2)c1` (centres unmarked), the “% Inhibition @ 10 uM” value was determined as 1.77%.

In the case of `CN(Cc1ccccc1)C(=O)c1ccc(C/N=c2/c(N3CCCC3)c(O)c2=O)cc1`, the “% Inhibition @ 10 uM” value was 5.91%.

As for `CCOc1ccc(-c2nc(SCC(=O)Nc3nccs3)c(-c3ccccc3)[nH]2)cc1`, the “% Inhibition @ 10 uM” value is recorded as 1.85%. As for `COc1cccc(C2CC(=O)Nc3cc4c(cc32)OCO4)c1OC` (centres unmarked), the “% Inhibition @ 10 uM” value was determined as 0.475%. For `CCCNC(=O)CN(c1ccc(C)cc1)S(=O)(=O)c1ccc(F)cc1`, the “% Inhibition @ 10 uM” value is on record as -1.38%. Take `CC1CCN(c2c(NCc3ccc(C(=O)NCC4COc5ccccc5O4)cc3)c(=O)c2=O)CC1` (centres unmarked): the “% Inhibition @ 10 uM” value came to 3.07%. To `COC(=O)c1ccc(-c2ccc(/C=C3\C(=O)N=C(N)N3C)o2)cc1` belongs -3.21%; to `CC1(C)CC(=O)c2cc(C(N)=O)c(=O)n(-c3ccccc3)c2C1`, 0.219%; to `Cc1nc2c(c(C)nn2C)c(C)c1CCC(=O)NCc1ccccc1`, 2.37%.

For `COc1cccc(CN(C(=O)COc2cc(C)c(Cl)c(C)c2)C2CCS(=O)(=O)C2)c1` (centres unmarked), the “% Inhibition @ 10 uM” value was 2.02%.

`Cc1[nH]c(SCC(=O)Nc2sc3c(c2C#N)CCCC3)nc1Cc1ccc(O)cc1`: the “% Inhibition @ 10 uM” value is listed as -0.92%. Consider `O=C(Nc1ccccc1F)c1ccc([N+](=O)[O-])cc1`, for which the “% Inhibition @ 10 uM” value was determined as 3.53%.

Consider `CCN(CC)S(=O)(=O)c1ccc(S(=O)(=O)c2ccc(S(=O)(=O)N(CC)CC)cc2)cc1`, for which the “% Inhibition @ 10 uM” value is given as -1.43%. To `COc1ccccc1OCCCC(=O)Nc1ccc(C)c(C)c1` belongs -2.09%. Then `O=C1CC(C(=O)Nc2ccc(Cl)cc2Cl)C(c2ccccc2)O1` (centres unmarked), with -0.999%; and `CCOC(=O)N1CCC(NC(=O)CN(C)S(=O)(=O)c2cccc3nsnc23)CC1`, with 1.79%; and `CC(CCc1ccccc1)N[C@H]1CCCCNC1=O` (some centres unmarked), with 0.217%. Consider `Cc1cc(/C=C(\C#N)c2nc3ccccc3[nH]2)c(C)n1-c1ccc(F)cc1`, for which the “% Inhibition @ 10 uM” value came to 2.18%. As for `Fc1ccc(CN2CCN(c3ccccc3F)CC2)cc1Br`, the “% Inhibition @ 10 uM” value is 3.25%. `CCOC(=O)NC(C)C1CC2CCC1C2` (centres unmarked): the “% Inhibition @ 10 uM” value is reported as -2.98%.

Regarding `Clc1ccc(OC2=C(c3ccccc3)N3CCN=C3S2)cc1`, the “% Inhibition @ 10 uM” value turned out to be 1.38%. As for `CCOc1ccc(-c2nc(CSCC(=O)NC(C)c3ccccc3)c(C)o2)cc1` (centres unmarked), the “% Inhibition @ 10 uM” value is 2.35%. As to `Sc1nnc2n(Cc3ccccc3)c3ccccc3n12`, the “% Inhibition @ 10 uM” value turned out to be 9.05%. Turning to `Cc1ccccc1Cn1nc(C)c(NC(=O)c2cc(C3CC3)on2)c1C`, the “% Inhibition @ 10 uM” value was 0.0221%. With `O=C(/C=C/c1ccco1)NCc1ccc2c(c1)OCO2`, the “% Inhibition @ 10 uM” value is -5.03%. On to `CCOc1cc(CN2CCN(c3ccc(OC)cc3)CC2)ccc1O`, for which the “% Inhibition @ 10 uM” value is reported as -0.0404%. Then `Cc1nn(-c2ccc(F)cc2)c(-n2cccc2)c1C(=O)NCCCOC(C)C`, with -1.43%; and `CC1(c2ccccc2)NCCN2C(=O)CSC21` (centres unmarked), with -8.21%; and `O=C(CN1Cc2ccccc2C1=O)NCCN1CCOCC1`, with -5.25%. Then `Cn1c(=O)[nH]c(=O)c2c1nc(NCCCN1CCOCC1)n2CCCc1ccccc1`, with -3.28%. With `CC(=O)Nc1ccc(NC(=O)C2C3CCC(C3)C2C(=O)O)cc1` (centres unmarked), the “% Inhibition @ 10 uM” value came out at 4.08%.

Regarding `COc1ccc(S(=O)(=O)N2CCSC2c2ccc(C)cc2)cc1` (centres unmarked), the “% Inhibition @ 10 uM” value is listed as -3.45%. To `Brc1cnc(OCc2ccccc2)nc1OCc1ccccc1` belongs 2.55%; to `COc1ccc2c(c1)CC/C2=N\OC(=O)c1ccccc1C`, 4.74%.

As to `COCCNC(=O)c1nnc(Cc2ccc(OC)c(OC)c2)o1`, the “% Inhibition @ 10 uM” value is given as -5.63%.

In the case of `C/C(O)=C\C(C)=N\c1ccc(-c2cnc(-c3ccccc3)o2)cc1`, the “% Inhibition @ 10 uM” value was -6.99%. To `Cc1c(C(=O)NCc2ccc3c(c2)OCO3)sc2nc3n(c(=O)c12)CCCCC3` belongs -3.49%. With `O=C(NCc1ccc2c(c1)OCO2)C1CCCN(c2nnc(-n3cccc3)s2)C1` (centres unmarked), the “% Inhibition @ 10 uM” value is given as 4.33%. Consider `O=C(Nc1ccc(I)cc1)c1ccc(Br)o1`, for which the “% Inhibition @ 10 uM” value was -3.82%.

Take `Cc1ccc2oc(=O)c3cc(C(=O)N4CCN(C(=O)c5ccco5)CC4)sc3c2c1`: the “% Inhibition @ 10 uM” value is -2.45%. Then `CCOCC(=O)Nc1cccc2cccnc12`, with -0.545%; and `CCCN(CCC)C(=O)Cn1c(=O)n(CC(=O)NCCc2ccccc2)c(=O)c2sccc21`, with -0.591%. Take `C=CCn1c(N)c(S(=O)(=O)c2ccccc2)c2nc3ccccc3nc21`: the “% Inhibition @ 10 uM” value is 4.54%. Then `Cc1ccc(NC(=O)CSc2nc(C)cc(C)c2C#N)c(Br)c1`, with -2.64%; and `Cc1ccc(NC(=O)CSc2ncn(-c3ccccc3)n2)cc1`, with 2.01%; and `CC(CNC(=O)c1cc2sccc2n1C)c1ccccc1` (centres unmarked), with -8.58%. Take `CCc1ccc(-n2nc(C)c3c(C(=O)NCc4ccccc4)cc(C)nc32)cc1`: the “% Inhibition @ 10 uM” value is recorded as -3.94%. On to `CC(=O)Nc1cc(C(F)(F)F)ccc1OCCOc1ccccc1`, for which the “% Inhibition @ 10 uM” value is listed as -2.09%. Consider `O=C(CCc1nc2ncccc2c(=O)n1Cc1ccc(F)cc1)N1CCC(Cc2ccccc2)CC1`, for which the “% Inhibition @ 10 uM” value amounted to 0.953%. Then `COc1ccc(CNC(=O)c2ccccc2-c2ccccc2)cc1`, with 2.6%; and `Cc1cc(Cl)ccc1OCC(=O)N1CCCC1`, with -0.132%; and `Cc1ccc(OC(C)C(=O)Nc2nc3ccccc3s2)cc1` (centres unmarked), with -8.28%.

For `Cc1ccc(NC(=O)CNS(=O)(=O)c2ccccc2)cc1C`, the “% Inhibition @ 10 uM” value is -4.39%.

Regarding `CCCOc1ccc(-c2nc(-c3ccc(Br)cc3)no2)cc1`, the “% Inhibition @ 10 uM” value is reported as -3.18%.

As for `CSc1ccc(C2C3=C(CC(C)(C)CC3=O)OC3=C2C(=O)CC(C)(C)C3)cc1`, the “% Inhibition @ 10 uM” value is recorded as -2.07%. On to `Cc1nc(Oc2ccc3c(c2)OCO3)c2c3c(sc2n1)CCCC3`, for which the “% Inhibition @ 10 uM” value is listed as -1.07%.

`CCOC(=O)c1nnn(-c2nonc2-c2ccccc2)c1CSCCO`: the “% Inhibition @ 10 uM” value worked out at 1.08%. With `CCCC(=O)Nc1ccc(N2CCN(S(C)(=O)=O)CC2)cc1`, the “% Inhibition @ 10 uM” value is reported as 4.44%. Regarding `Cc1ccc(N2C(=O)C3C(C2=O)C2(Br)c4ccccc4C3(Br)c3ccccc32)cc1` (centres unmarked), the “% Inhibition @ 10 uM” value was 1.64%. To `CC(C)OCCCNC(=O)c1cc(-c2ccc3c(c2)OCO3)nc2ccccc12` belongs 1.39%; to `Cc1[nH]c2ccccc2c1-c1csc(-c2ccc(O)cc2)n1`, -0.469%; to `CCOC(=O)C1=C(N)Oc2ccc3ccccc3c2C1c1ccc(Cl)cc1` (centres unmarked), -5.96%. Consider `O=P(c1ccccc1)(c1ccccc1)N1CCN(P(=O)(c2ccccc2)c2ccccc2)CC1`, for which the “% Inhibition @ 10 uM” value is listed as -3.98%. Consider `CCCCCC1C(=O)CC(c2ccccc2)N(C)C1c1ccccc1` (centres unmarked), for which the “% Inhibition @ 10 uM” value is -3.35%. Then `O=C1N=C(N2CCCC2)S/C1=C\c1ccccc1Cl`, with -6.67%; and `NS(=O)(=O)c1ccc(N2N=C(c3ccccc3)CC2c2ccccc2)cc1` (centres unmarked), with -0.969%; and `CC1CCCCC1NC(=O)CN1CCN(Cc2ccc(Cl)cc2)C1=O` (centres unmarked), with -2.99%. As for `O=C(CCS(=O)(=O)c1ccc(Br)s1)NCc1ccccc1Cl`, the “% Inhibition @ 10 uM” value came out at 1.37%. For the compound `Cc1cc(N2C(=O)C3CCC(c4ccccc4)CC3C2=O)no1` (centres unmarked), the “% Inhibition @ 10 uM” value worked out at 2.64%. For `C=CC[C@@H]1Cc2ccccc2[C@@H](CCCC)N1`, the “% Inhibition @ 10 uM” value is reported as -2.07%.

With `Cc1ccccc1CSCCNC(=O)CN1C(=O)c2ccccc2S1(=O)=O`, the “% Inhibition @ 10 uM” value is reported as -5.1%.

Turning to `CS(=O)(=O)C1=NN2C(=N)/C(=C\c3cn(Cc4ccccc4F)c4ccccc34)C(=O)N=C2S1`, the “% Inhibition @ 10 uM” value is recorded as -5.27%.
